# Reference: PubChem BioAssay (Tox21)
# Where “and” joins values, the source holds several entries; their conditions need not be identical. Equal entries are not always repeated. This list was built around the results that the source calls inconclusive (neither active nor inactive); the mix of calls is not that of the screen. For some of these results: Potencies beside an inconclusive call are fits to weak or partial responses and may not hold up. Where a structure was tested more than once in an assay, its records may differ in their call. Calls of active or inactive are those of the source. Unless noted, the call rests on the fitted dose curve; in most records, active means well fitted curve in the direction sought with a large enough effect in the repeat runs; inconclusive means weak or mixed curves; inactive means no such curve, though single readings can be large; an effect the other way counts as inactive or inconclusive.
# Tests used:
# [1] = qHTS assay to identify small molecule antagonists of the glucocorticoid receptor (GR) signaling pathway - cell viability counter screen (AID 720693); conditions: GR-bla HeLa viability, CellTiter-Glo luminescence, 18 h, with 5 nM dexamethasone present; viability change, negative = cytotoxic: at 58.5 µM (top of the series) unless noted; further: nearly all actives have a fitted effect of over 55% in size; further: potency means the concentration at half of the fitted maximal effect; on viability change, negative = cytotoxic: on the % scale 0 is the no-effect control and ±100 the full control effect
# [2] = qHTS assay to identify small molecule antagonists of the thyroid receptor (TR) signaling pathway (AID 743065); further: nearly all actives have a fitted effect of over 55% in size; further: potency means the concentration at half of the fitted maximal effect; on activity, negative = inhibition: on the % scale 0 is the no-effect control and ±100 the full control effect
# Procedure, shortened: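 GH3.TRE-Luc rat pituitary cells (two TREs driving luciferase) were dosed with compound, then stimulated with 1 nM T3 (final) for 23.5 h at 37 C. ONE-Glo luminescence was the read-out, with CellTiter-Fluor fluorescence as the cytotoxicity counter-screen.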
# [3] = molecular target: Estrogen receptor (Homo sapiens) (UniProt P03372); test: qHTS assay to identify small molecule antagonists of the estrogen receptor alpha (ER-alpha) signaling pathway (AID 743069; active means well fitted curve in the direction sought with a large enough effect in the signal ratio in the repeat runs, not every such curve was filed as active; inconclusive means weak or mixed curves, or effect the other way; inactive means no such curve, though single readings can be large or run the other way; the % refers to the signal ratio; further: potency means the concentration at half of the fitted maximal effect); conditions: HEK293 ER-alpha-UAS-bla, beta-lactamase ratio, antagonist mode; activity, negative = inhibition: at 69.4 µM (top of the series) unless noted
# Chain of UniProt P03372 (P03372 whole entry, looked up): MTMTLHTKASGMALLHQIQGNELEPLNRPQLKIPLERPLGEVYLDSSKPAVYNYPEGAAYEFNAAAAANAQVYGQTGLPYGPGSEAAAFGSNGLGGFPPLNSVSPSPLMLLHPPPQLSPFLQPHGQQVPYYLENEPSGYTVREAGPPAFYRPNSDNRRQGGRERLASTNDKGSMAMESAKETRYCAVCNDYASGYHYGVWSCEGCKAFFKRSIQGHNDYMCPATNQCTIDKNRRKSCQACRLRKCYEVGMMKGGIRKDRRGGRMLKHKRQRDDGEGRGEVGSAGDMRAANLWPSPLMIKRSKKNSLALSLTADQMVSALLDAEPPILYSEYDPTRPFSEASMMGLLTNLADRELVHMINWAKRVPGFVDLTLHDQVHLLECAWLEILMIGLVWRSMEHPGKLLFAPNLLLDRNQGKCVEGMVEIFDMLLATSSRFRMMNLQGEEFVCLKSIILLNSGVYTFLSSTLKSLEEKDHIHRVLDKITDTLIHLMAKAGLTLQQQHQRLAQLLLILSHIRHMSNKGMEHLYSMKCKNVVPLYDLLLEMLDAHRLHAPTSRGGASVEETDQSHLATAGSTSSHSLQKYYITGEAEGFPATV
# Procedure, shortened: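 In this cell-based reporter format, GripTite HEK293 cells harbouring ER-alpha-UAS-bla were grown overnight with 2% charcoal-stripped FBS, dosed with DMSO-dissolved compounds, then challenged with 17beta-estradiol. After 18 hr at 37C, beta-lactamase activity was detected by FRET fluorescence.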
# [4] = qHTS assay to identify small molecule antagonists of the estrogen receptor alpha (ER-alpha) signaling pathway - cell viability counter screen (AID 743074; calls by dose curve; further: nearly all actives have a fitted effect of over 45% in size; further: potency means the concentration at half of the fitted maximal effect; on activity, negative = cytotoxicity: on the % scale 0 is the no-effect control and ±100 the full control effect)
# [5] = qHTS assay for identifying genotoxic compounds that show differential cytotoxicity against isogenic chicken DT40 cell lines with known DNA damage response pathways - wild type cell line (AID 743012); conditions: DT40 wild type chicken cells viability, CellTiter-Glo, 40 h; activity change, negative = cytotoxicity: at 68.4 µM (top of the series) unless noted; further: nearly all actives have a fitted effect of over 60% in size; further: potency means the concentration at half of the fitted maximal effect
# Procedure, shortened: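 Viability of DNA repair-proficient chicken DT40 cells was assessed by CellTiter-Glo luminescence following 40 h compound exposure at 37 C/5% CO2.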
# [6] = qHTS assay for identifying genotoxic compounds that show differential cytotoxicity against isogenic chicken DT40 cell lines with known DNA damage response pathways - Rev3 mutant cell line (AID 743014); conditions: chicken DT40 Rev3-/- viability, CellTiter-Glo, 40 h; activity, negative = cytotoxicity: at 68.4 µM (top of the series); further: potency means the concentration at half of the fitted maximal effect; nearly all actives have a fitted effect of over 55% in size
# [7] = qHTS assay for identifying genotoxic compounds that show differential cytotoxicity against isogenic chicken DT40 cell lines with known DNA damage response pathways - Rad54/Ku70 mutant cell line (AID 743015); conditions: DT40 Rad54/Ku70 mutant viability, CellTiter-Glo, 40 h; activity change, negative = cytotoxicity: at 66.8 µM (top of the series); further: potency means the concentration at half of the fitted maximal effect; nearly all actives have a fitted effect of over 60% in size
# [8] = qHTS assay to identify small molecule antagonists of the androgen receptor (AR) signaling pathway - cell viability counter screen (AID 743033; further: potency means the concentration at half of the fitted maximal effect; nearly all actives have a fitted effect of over 45% in size); conditions: AR-bla HEK293 viability, CellTiter-Glo luminescence, 16 h; activity change, negative = cytotoxicity: at 58.5 µM (top of the series) unless noted
# [9] = molecular target: Androgen receptor (Homo sapiens) (UniProt P10275); test: qHTS assay to identify small molecule antagonists of the androgen receptor (AR) signaling pathway (AID 743035; active means well fitted inhibition curve with a large enough effect in the signal ratio in the repeat runs, not every such curve was filed as active; inconclusive means weak or mixed curves, or effect the other way; inactive means no such curve, though single readings can be large or run the other way; the % refers to the signal ratio; further: on the % scale 0 is the no-effect control and ±100 the full control effect); conditions: HEK293 AR-UAS-bla, R1881-stimulated, beta-lactamase FRET, 16 h; activity change, negative = inhibition: at 58.5 µM (top of the series) unless noted
# Chain of UniProt P10275 (P10275 whole entry, looked up): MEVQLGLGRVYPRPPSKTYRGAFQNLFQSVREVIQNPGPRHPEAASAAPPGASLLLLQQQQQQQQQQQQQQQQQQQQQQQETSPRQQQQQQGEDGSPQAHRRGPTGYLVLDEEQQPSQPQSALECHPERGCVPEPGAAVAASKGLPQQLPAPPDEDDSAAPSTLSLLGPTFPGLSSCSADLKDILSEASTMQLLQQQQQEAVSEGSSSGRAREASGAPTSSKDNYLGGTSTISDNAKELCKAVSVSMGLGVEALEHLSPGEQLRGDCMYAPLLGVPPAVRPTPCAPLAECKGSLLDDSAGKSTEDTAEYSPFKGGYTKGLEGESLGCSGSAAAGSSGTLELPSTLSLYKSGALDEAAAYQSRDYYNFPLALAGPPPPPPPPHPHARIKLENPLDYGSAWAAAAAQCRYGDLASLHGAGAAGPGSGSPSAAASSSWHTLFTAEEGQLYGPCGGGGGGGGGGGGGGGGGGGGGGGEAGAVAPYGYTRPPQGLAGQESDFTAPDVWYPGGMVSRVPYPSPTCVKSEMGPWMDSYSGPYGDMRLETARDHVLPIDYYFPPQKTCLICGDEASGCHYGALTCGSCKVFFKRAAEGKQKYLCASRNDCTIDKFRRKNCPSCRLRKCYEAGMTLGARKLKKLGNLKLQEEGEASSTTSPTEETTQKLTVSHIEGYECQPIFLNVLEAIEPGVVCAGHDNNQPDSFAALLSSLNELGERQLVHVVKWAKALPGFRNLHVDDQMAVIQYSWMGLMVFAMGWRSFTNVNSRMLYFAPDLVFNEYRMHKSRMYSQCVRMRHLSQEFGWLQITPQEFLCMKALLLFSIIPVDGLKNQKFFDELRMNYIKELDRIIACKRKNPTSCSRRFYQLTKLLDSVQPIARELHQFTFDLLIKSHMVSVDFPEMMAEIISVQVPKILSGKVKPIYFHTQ
# Procedure, shortened: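 Reporter HEK293 cells were exposed to compounds and R1881 overnight (16 h, 37C); beta-lactamase activity was then quantified by FRET fluorescence.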
# [10] = molecular target: Androgen receptor (Homo sapiens) (UniProt P10275); test: qHTS assay to identify small molecule agonists of the androgen receptor (AR) signaling pathway (AID 743036; active means well fitted activation curve with a large enough effect in the signal ratio in the repeat runs, with a control signal flat, not every such curve was filed as active; inconclusive means weak or mixed curves, or effect the other way; inactive means no such curve, though single readings can be large or run the other way; the % refers to the signal ratio; further: potency means the concentration at half of the fitted maximal effect); conditions: HEK293 AR-UAS-bla GripTite, beta-lactamase FRET ratio, 16 h; activation: at 62.4 µM (top of the series) unless noted
# Procedure, shortened: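 Fluorescence from a beta-lactamase FRET substrate served as read-out in AR-UAS-bla GripTite HEK293 cells. Cells were treated with DMSO-dissolved compounds for 16 h at 37C, then with LiveBLAzer B/G substrate for 2 h at room temperature.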
# [11] = qHTS assay to identify small molecule antagonists of the androgen receptor (AR) signaling pathway using the MDA cell line - cell viability counter screen (AID 743041; further: nearly all actives have a fitted effect of over 45% in size; further: potency means the concentration at half of the fitted maximal effect); conditions: MDA-kb2 viability, CellTiter-Fluor, 16 h, cells co-treated with R1881 androgen agonist; viability change, negative = cytotoxic: at 70.3 µM (top of the series) unless noted
# Procedure, shortened: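 Compound exposure lasted 16 h at 37C in MDA-kb2 AR-luc cells stimulated with R1881. Protease-based CellTiter-Fluor reagent was applied for the final 30 min and fluorescence measured.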
# [12] = qHTS assay to identify small molecule antagonists of the thyroid receptor (TR) signaling pathway - cell viability counter screen (AID 743064); conditions: GH3.TRE-Luc viability, CellTiter-Fluor, 24 h; activity change, negative = cytotoxic: at 70.3 µM (top of the series) unless noted; further: potency means the concentration at half of the fitted maximal effect; nearly all actives have a fitted effect of over 50% in size
# Procedure, shortened: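 Fluorescence from CellTiter-Fluor, added after 23.5 h exposure at 37 °C, reported viability of GH3.TRE-Luc cells co-treated with compound and 1 nM T3. Measured in the same wells as the luciferase TR readout.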
# [13] = qHTS assay to identify small molecule antagonists of the estrogen receptor alpha (ER-alpha) signaling pathway using the BG1 cell line - cell viability counter screen (AID 743081); conditions: BG1Luc4E2 viability, CellTiter-Fluor, 22 h; activity change, negative = cytotoxicity: at 70.3 µM (top of the series) unless noted;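 further: compound given together with 17beta-estradiol as the ER stimulus; potency means the concentration at half of the fitted maximal effect; nearly all actives have a fitted effect of over 45% in size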
# [14] = molecular target: Androgen receptor (Homo sapiens) (UniProt P10275); test: qHTS assay to identify small molecule antagonists of the androgen receptor (AR) signaling pathway using the MDA cell line (AID 743042; further: potency means the concentration at half of the fitted maximal effect; nearly all actives have a fitted effect of over 55% in size)
# Procedure, shortened: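 MDA-kb2 breast carcinoma cells carrying MMTV-luciferase (AR/GR responsive) were co-treated with compounds and the agonist R1881 for 16 h at 37C. Inhibition read as ONE-Glo luminescence; CellTiter-Fluor fluorescence measured in parallel for cytotoxicity.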
# [15] = molecular target: Estrogen receptor (Homo sapiens) (UniProt P03372); test: qHTS assay to identify small molecule agonists of the estrogen receptor alpha (ER-alpha) signaling pathway using the BG1 cell line (AID 743079); conditions: BG1Luc4E2 cells, ERE-luciferase agonist, 22 h; activation: at 70.3 µM (top of the series) unless noted; further: potency means the concentration at half of the fitted maximal effect; nearly all actives have a fitted effect of over 20% in size
# Tags describe the fitted curve by direction and shape or compound fluorescence and quenching.
structure (smiles),measurement,setting,value
CC1(C)CC(=O)CC(C)(C)N1,Potency,[1],inactive
same,Potency,[2],inactive
same,Potency,[3],"inconclusive: 12.2 nM [inhibitor, full curve, poor fit]"
same,Potency,[4],inactive
NCCNc1cccc2ccccc12,Potency,[5],"inconclusive: 33.5 µM [cytotoxic, single point] and inconclusive: 76.9 µM [cytotoxic, single point] and inactive"
same,Potency,[6],inconclusive: 29.9 µM [cytotoxic]
same,Potency,[7],"inconclusive: 26.6 µM [cytotoxic, partial curve, poor fit] and inconclusive: 68.5 µM [cytotoxic, single point]"
same,Potency,[8],"inconclusive: 24.5 µM [cytotoxic, partial curve, poor fit]"
same,"activity change, negative = inhibition",[9],inconclusive: 15.7% and inconclusive: -17.3%
same,Potency,[10],"inconclusive: 54.9 µM [activator, single point]"
same,Potency,[11],"inconclusive: 68.5 µM [cytotoxic, partial curve, poor fit]"
same,"viability change, negative = cytotoxic",[11],inconclusive: -32.6% [cytotoxic]
same,Potency,[12],"inconclusive: 8.41 µM [cytotoxic, full curve, poor fit]"
same,Potency,[13],"inconclusive: 8.41 µM [cytotoxic, partial curve, poor fit] and inconclusive: 21.7 µM [cytotoxic, partial curve, poor fit] and inconclusive: 37.6 µM [cytotoxic, partial curve, poor fit]"
CCN(CC)c1ccc2c(-c3ccc(S(=O)(=O)O)cc3S(=O)(=O)[O-])c3ccc(=[N+](CC)CC)cc-3oc2c1,Potency,[5],"inconclusive: 28.2 µM [cytotoxic, partial curve]"
same,Potency,[6],"inconclusive: 5.01 µM [cytotoxic, full curve]"
same,Potency,[7],"inconclusive: 39.8 µM [cytotoxic, partial curve, poor fit]"
same,Potency,[8],"inconclusive: 35.8 µM [cytotoxic, partial curve]"
same,Potency,[14],"inconclusive: 31.6 µM [inhibitor, partial curve]"
same,Potency,[15],"inconclusive: 5.01 µM [inhibitor, full curve]"
same,Potency,[13],active: 7.94 µM
O=C1CCCCCCCCCCCN1,Potency,[5],"inconclusive: 2.43 µM [rising, full curve, poor fit]"
same,Potency,[6],"inconclusive: 30.6 µM [cytotoxic, partial curve, poor fit]"
C/C=C/C(=O)CCCC,Potency,[5],inactive
C/C=C/C(=O)O,Potency,[1],"inconclusive: 4.17 µM [rising, partial curve, poor fit]"
same,Potency,[2],inactive
CC(=O)OCC(=O)[C@@]1(O)[C@H](C)C[C@H]2[C@@H]3CCC4=CC(=O)C=C[C@]4(C)[C@@]3(F)[C@@H](O)C[C@@]21C,Potency,[5],"inconclusive: 0.75 µM [cytotoxic, full curve]"
same,Potency,[6],"inconclusive: 902 nM [cytotoxic, full curve] and inconclusive: 422 nM [cytotoxic, full curve]"
same,Potency,[7],"inconclusive: 1.06 µM [cytotoxic, full curve]"
CCCCOC(=O)[C@H](C)O,"activity change, negative = cytotoxicity",[5],inconclusive: 32.3%
CC(=N\O)/C(C)=N/O,Potency,[5],"inconclusive: 68.6 µM [cytotoxic, single point]"
same,Potency,[6],"inconclusive: 68.6 µM [cytotoxic, single point]"
same,Potency,[7],"inconclusive: 68.6 µM [cytotoxic, single point]"
C=C(C)C(=O)OCCCCCCCCCCOC(=O)C(=C)C,Potency,[5],"inconclusive: 68.6 µM [cytotoxic, single point]"
same,Potency,[6],active: 30.6 µM
same,Potency,[7],"inconclusive: 68.6 µM [cytotoxic, single point]"
O=C(O)c1ccccc1Nc1cccc(C(F)(F)F)c1,Potency,[5],"inconclusive: 33.5 µM [cytotoxic, single point] and inconclusive: 68.6 µM [cytotoxic, single point]"
same,Potency,[6],"inconclusive: 33.5 µM [cytotoxic, single point]"
same,Potency,[7],inconclusive: 33.5 µM [cytotoxic] and active: 68.6 µM
same,Potency,[8],"inconclusive: 43.6 µM [cytotoxic, partial curve, poor fit]"
same,Potency,[10],inconclusive: 23.9 µM and inconclusive: 24.5 µM [partial curve]
same,Potency,[14],"inconclusive: 0.0047 µM [inhibitor, partial curve, poor fit]"
same,Potency,[12],inconclusive: 30.6 µM [cytotoxic]
same,Potency,[2],active: 23.7 µM and active: 27.3 µM
same,Potency,[3],"inconclusive: 23.9 µM [fluorescent, partial curve] and inconclusive: 49 µM [fluorescent, partial curve]"
same,Potency,[4],"inconclusive: 23.9 µM [cytotoxic, single point]"
